Measured values: the supplement of paper PMC10126150
Values marked as one replicate rest on one cluster of the flow cell; about a third of the high ones do not repeat.

System: ATP
Test: switch fluorescence ratio, 500 uM ATP over buffer (Cy3 cluster intensity, sum of 5 cycles each) (fold (ratio)); higher = stronger signal-on switching upon ATP binding; sequences stand for … in TCGTCGGCAGCGTCAGATGTGTATAAGAGACAGTTTTTTTTTTTTTTTTTTTTTTTTT…TC
Conditions: aptamer strand: ATP DNA aptamer (quencher-CACCTGGGGGAGTATTGCGGAGGAAGG + anchor), 100 nM annealed; ATP concentration: 500 uM; one replicate
In short: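 Per cluster, summed Cy3 intensity from the target cycles was divided by that from the buffer cycles to give the fluorescence ratio, then averaged per switch-domain sequence. Clusters outside 100-1000 RFU were excluded. The Cy3-labelled switching-strand clusters, on a modified Illumina MiSeq flow-cell, were annealed to 100 nM quencher-labelled ATP aptamer and imaged in selection buffer, then after 15 min with 500 uM ATP at 22 °C, for five cycles with NaOH stripping and re-annealing between them.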
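Note: ATP exposure 15 min at 22 °C before imaging.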

Sequence	switch fluorescence ratio
GCGCTGAGGG	0.986
AACTTAACGT	1.09
TGTATTTGCT	1.02
AACAGGACAA	1.08
CTAGGTGTTC	1.09
TTGGACACGG	1.04
ACAACTGCAT	1.09
GAGATTCGTT	1
TGCACAAGGA	1.05
AAACCCTGTG	1.05
CCGGGCCACT	1.06
TTTAAAGATA	1.04
GCCCGTACTA	1.04
AGCAGTAGGG	1.03
GAGTGTGTGG	0.969
AATAGTTGGT	0.946
GGGCCTATTG	0.986
GACAGCCGGC	1.08
CAGGCTGGGG	1.02
GGTGTCTAGC	1.02
TAATTCCGGA	1.03
GTAGAAAGCC	1.06
AAACAGACGA	1.25
TCGAAGTGCT	0.996
AAAACAAGTG	1.01
TACCCTCTCT	0.994

Sequence	switch fluorescence ratio
AACACTC	1.02
TTACGACACA	1.41
GCTCGCGGCT	0.975
TTGGTCCTTG	1
ACTCCGTTC	4.96
TAGATGCTGC	1.03
TACCCCCTT	1.22
CCTTGTCTTG	1.03
AAACACGAAG	1.02
GATTAACGTA	1.11
GGTCGAAGG	0.971
CTCATTCGGC	1.06
TTTGCAAAGC	1.07
TCTTACCACA	1.07
AAATCGGTGC	0.97
TATGCATGC	1.05
CACTGAGACC	1.15
TTGTGCAAG	1.02
GTTCTACCGT	1.01
TTAGTACCTG	1.07
AATAGTCGGT	0.988
ATATGTAGTG	1.02
CTAATTTTGA	1.03
TATTAGACCA	1.06
AAAACTGGT	1.09
TTTAGCGGG	1

Sequence	switch fluorescence ratio
ACCTTGAGCG	1.01
AGTTTTTCGG	0.982
TTCCCCTCTG	1.1
CGGATGGCAA	1.36
CGTTGAGAAT	1.03
TCGGGTAGCC	1.03
GATTGGGAGT	1
AAGTCCGCGC	2.58
TGAAGGGCTG	1
AAGGTATGAG	0.99
TCATAATGAG	0.993
GCTTCCAGCG	1.02
AATGGGCAAT	1.06
TTCAACCTCT	1.05
AACCGTAGCC	1.47
CATTCGGCGT	1.01
TAGGTCACAA	0.99
AAAGGGAGG	1.02
TACCTTATTC	1.1
ATATGATTCT	0.975
CGGAAAGTGG	0.976
GTACGAGCTA	1.15
GGTGGTGAAC	0.945
ACTGTGATAA	1.04
ACTTTTCATG	1.02
CCGGTTTAC	2.7

Sequence	switch fluorescence ratio
GTATACTTC	1.11
GACGATGTCG	0.926
TTTGCTTGA	1
GAACTCAAGA	1.04
TTTGTACATG	1.03
CCAAGTAAAT	1.04
GCAGGATCCC	1.07
GCGCAAG	1.13
ACCTGCTCGT	1.06
GCGGGATTTC	1.06
GACGGAGTTA	1.09
CGTAACCTAG	0.997
TGCTCGCTTT	1.03
CGGGACAGAC	1.2
GCTGAAGGGG	1.01
AGCTGCACCG	1.02
GGTGCTCTAC	1.05
GGGGCTGCCG	1.03
TAGATATTTG	1.02
GTATGAGATA	1.01
CCCGGGTGAA	2.24
TGCATATCCG	1
AAACGTGTAG	1.05
ACAGATATTG	1.02
GCAGAGAGTT	0.984
GCTCGGGGCG	1.03

Sequence	switch fluorescence ratio
CCGAGAGGCA	1.27
ACTATGGGTT	0.996
TGCATGAACT	1.05
TGATGACCCC	1.2
AAGGTCAATA	1.01
ACCGGAGGAC	1.13
TTCGGCCGGA	1.01
ATGCAACCTG	1.05
AATTGTCTGG	1.01
GTTACAGGGT	1.06
ATCTTCCAGC	1.16
TTCCTGCGGC	1.51
AATTGCGGTG	0.966
AACTTCTGCT	1.03
CACTTGCCCT	1.04
ACGACAAGGG	1.08
ATCGGCCCGG	0.979
GGCGTAGCG	1.01
GTTCGGATTT	1.01
TGCTGGTAA	0.944
AGGTGTAGGA	1.01
ATACTGGAAC	1.07
ATTACAGCTG	0.992
GTTAATGGA	0.987
ATTAGCCCAG	1.01
ACTTTTCCGG	1.05

Sequence	switch fluorescence ratio
TACATAAATT	0.98
GAAGAATCAA	0.985
TCCTGGAGAA	1.06
GCATTGATGG	1.01
TAAATGCGC	0.99
TTAGGTTCT	1.11
TGAACCCACC	1.09
GACCAGGGGT	1.19
CCGACAGGGA	1.19
GTGATTGTAT	1
ATGTAAGAGC	0.961
GAAGACATTA	1.01
CTTAATGACG	0.968
GACTTCCCGC	2.6
CACATCGTTA	0.969
GTAAGATGTA	0.996
CGTTACTCAT	1.02
CTCGAGGCTC	0.994
GGGGTCAGCT	0.982
GGCTACTCAA	1.09
AATTCAAACA	1.03
TCAAAGGCGT	1.02
TCTCTGTAG	1.01
TTCCCCTAAT	1.08
